# Measured values published in PubChem BioAssay AID1460 (National Center for Advancing Translational Sciences (NCATS), 2008).
# Several values for one entry are separate records, joined by “and”; a condition that tells them apart may be missing. Equal values may be shown once. Screen size: about 270,000 compounds; about 5,800 (2.1%) were called active. Inconclusive results, whose numbers are uncertain, are shown with a selection of clear calls. Calls come from the whole dose curve; as a rule, active = well fitted inhibition curve with a large enough effect; inconclusive = small, poorly fitted or top-dose-only effect; inactive = flat fitted curve, though single readings scatter. Where the call is inconclusive, the potency comes from a doubtful curve fit.
# Molecular target: Microtubule-associated protein tau (Homo sapiens) (UniProt P10636)
# Sequence of UniProt P10636 (P10636 whole entry, looked up): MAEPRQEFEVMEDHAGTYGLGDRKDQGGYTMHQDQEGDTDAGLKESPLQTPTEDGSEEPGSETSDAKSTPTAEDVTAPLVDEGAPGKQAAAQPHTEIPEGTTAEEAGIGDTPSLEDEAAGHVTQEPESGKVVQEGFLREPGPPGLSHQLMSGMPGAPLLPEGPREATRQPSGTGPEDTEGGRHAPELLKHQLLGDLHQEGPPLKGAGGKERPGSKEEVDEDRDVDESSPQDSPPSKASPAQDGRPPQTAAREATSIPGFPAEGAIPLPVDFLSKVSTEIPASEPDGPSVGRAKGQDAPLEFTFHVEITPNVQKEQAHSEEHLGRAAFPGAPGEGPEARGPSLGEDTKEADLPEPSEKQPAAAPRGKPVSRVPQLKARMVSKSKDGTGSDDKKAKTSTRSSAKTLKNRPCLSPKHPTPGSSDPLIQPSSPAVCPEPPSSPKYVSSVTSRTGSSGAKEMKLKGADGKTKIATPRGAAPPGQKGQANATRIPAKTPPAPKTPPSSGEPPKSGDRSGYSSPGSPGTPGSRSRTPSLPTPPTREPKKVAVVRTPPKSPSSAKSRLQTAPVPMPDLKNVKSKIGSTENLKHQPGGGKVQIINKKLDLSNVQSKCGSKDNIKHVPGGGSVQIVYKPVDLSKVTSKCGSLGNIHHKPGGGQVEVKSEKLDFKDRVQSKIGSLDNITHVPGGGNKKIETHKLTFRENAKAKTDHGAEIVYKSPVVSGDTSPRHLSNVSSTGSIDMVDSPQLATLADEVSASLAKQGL
# Assay: qHTS for Inhibitors of Tau Fibril Formation, Thioflavin T Binding; note: nearly all actives have a fitted effect of over 55% in size
# Settings: recombinant tau K18 P301L (four-repeat tau fragment), heparin-induced fibrillization, ThT fluorescence; series mostly up to 57.4 µM
# How it was run: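 Heparin-induced fibrillization of the P301L-mutant K18 repeat-domain fragment of human tau was followed by ThT binding in quantitative high-throughput format.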
# Potency is the fitted concentration of half-maximal effect; tags give direction and shape of the fitted curve.
row,SMILES,Potency
1,COc1ccc(N2CCN(C(=O)C(CCSC)N=C3NS(=O)(=O)c4ccccc43)CC2)cc1 (configuration not stated),"inconclusive: 39.8 µM [inhibitor, partial curve, poor fit]"
2,COc1ccc(NC(=O)Cn2c(SCc3cccc(Cl)c3)nc3ccncc32)c(OC)c1OC,"inconclusive: 39.8 µM [inhibitor, single point]"
3,COc1ccc(N=N/C(=C\O)C(=O)c2ccco2)cc1,active: 8.91 µM
4,COCCNc1nc(C)cc(-c2cc(C(=O)NCc3ccccc3)on2)n1,"inconclusive: 44.7 µM [activator, single point]"
5,C/C(=N/NC(=O)c1cc(-c2ccc(Br)s2)[nH]n1)c1ccco1,"inconclusive: 2.82 µM [inhibitor, full curve, poor fit]"
6,O=C(COc1ccc(/C=N/NC(=O)c2cc3ccccc3o2)cc1Cl)Nc1ccccc1,"inconclusive: 0.562 µM [inhibitor, full curve]"
7,COc1cc(Cl)c(C)cc1NC(=O)CCc1nc2cccnc2n1-c1ccccc1,inactive
8,CCCCCOCC1CC(C/C(C)=N/Nc2nc(-c3ccccc3)cs2)C(=O)O1 (configuration not stated),"inconclusive: 15.8 µM [inhibitor, partial curve]"
9,Cc1ccc(NC(=O)CN2C(=O)S/C(=C\c3cc(C)n(-c4ccc(C(=O)O)cc4)c3C)C2=O)cc1,"inconclusive: 31.6 µM [inhibitor, single point]"
10,O=C(NNC(=O)c1cccnc1)NC12CC3CC(CC(C3)C1)C2,inactive
11,COc1ccc(CCNC(=O)c2ccc3c(c2)N(Cc2c(F)cccc2Cl)C(=O)CS3)cc1OC,inactive
12,Cc1cccc(-n2c(=S)[nH]c3sc4c(c3c2=O)CCc2ccccc2-4)c1,"inconclusive: 3.55 µM [inhibitor, single point]"
13,N#CC(=C=[N-])c1nc2ccccc2nc1-[n+]1ccccc1,"inconclusive: 20 µM [inhibitor, partial curve] and inconclusive: 39.8 µM [inhibitor, single point]"
14,CCc1ccccc1NC(=O)CN(Cc1ccccc1)S(=O)(=O)c1ccc(Br)cc1,"inconclusive: 7.94 µM [inhibitor, single point]"
15,O=C1CC[C@@H](CN(Cc2ccccc2)Cc2cn[nH]c2-c2cc3ccccc3o2)N1,"inconclusive: 31.6 µM [inhibitor, partial curve]"
16,N#Cc1c(-c2ccccc2)c(-c2ccccc2)nn(CC(=O)NNC(=O)Nc2ccc(Cl)c(Cl)c2)c1=O,"inconclusive: 39.8 µM [inhibitor, single point]"
17,CN(/N=C/c1cc([N+](=O)[O-])ccc1O)c1ccccc1,"inconclusive: 5.62 µM [inhibitor, partial curve]"
18,Cc1cccc(N2CCN(C(=O)CCc3nnc4n(CC(C)C)c(=O)c5ccccc5n34)CC2)c1C,"inconclusive: 31.6 µM [inhibitor, single point]"
19,CC1CC(C)(C)NC(=S)N1CCCC(=O)N1CCN(c2ccccc2F)CC1 (configuration not stated),inactive
20,Cc1ccc(OCCSc2nc(NC(C)C)nc(NC(C)C)n2)cc1,"inconclusive: 20 µM [inhibitor, single point]"
21,CCCOc1ccc(/C=c2\sc3ncnn3c2=O)cc1,"inconclusive: 35.5 µM [inhibitor, partial curve, poor fit]"

row,SMILES,Potency
1,C=CCn1c(NC(=O)c2ccc(C)cc2)c(C#N)sc1=N,"inconclusive: 5.62 µM [inhibitor, partial curve, poor fit]"
2,O=C(Nc1ccc(-n2ccc(C(F)(F)F)n2)cc1)Nc1cccc(Cl)c1,inactive
3,Cc1nn2c(-c3cccc(NC(=O)c4ccccc4)c3)nnc2c2ccccc12,"inconclusive: 14.1 µM [inhibitor, partial curve]"
4,COc1ccc(CNC(=O)c2ccc(N3CCCC3)c(NC(=O)NCc3ccc(C)cc3)c2)cc1,"inconclusive: 10 µM [inhibitor, partial curve, poor fit]"
5,O=C(Nc1ccc(S(=O)(=O)N2CCc3ccccc32)cc1)c1ccc2c(c1)OCO2,inactive
6,Cc1cc(NC(=O)CCS(=O)(=O)c2cc3c4c(c2)CCN4C(=O)CC3)ccc1Br,inactive
7,Cc1cccc(CSc2nnc([C@@H]3CCCN3C(=O)OC(C)(C)C)o2)c1,"inconclusive: 12.6 µM [inhibitor, partial curve]"
8,CCc1ccc(CNC(=O)c2ccc(NC(=O)N3CC(C)Sc4ccccc43)cc2)cc1 (configuration not stated),inactive
9,Cc1cc(C)c2c(=O)cc(C(=O)Nc3ccccc3C(F)(F)F)oc2c1,inactive
10,CC(=O)c1ccc(N2CCN(c3ccc(NC(=O)c4ccc(F)cc4)cc3C(=O)O)CC2)cc1,"inconclusive: 12.6 µM [inhibitor, partial curve]"
11,O=C1C2CCCN2C(c2ccc(F)cc2)N1c1nccs1 (configuration not stated),"inconclusive: 31.6 µM [inhibitor, single point]"
12,COc1ccc(CC(=O)NCCC2=CCCCC2)cc1,inactive
13,COC(=O)c1ccc2c(=O)n(CCCCCC(=O)NCc3ccc(Cl)cc3)c(=O)[nH]c2c1,inactive
14,Cc1ccc(/C=N/c2sc3c(c2C#N)CCCCC3)o1,"inconclusive: 7.94 µM [inhibitor, partial curve]"
15,COc1cc(OC)c(OC)cc1/C=C/c1nc2cc3ccccc3cc2c(=O)n1-c1ccc(F)cc1F,"inconclusive: 15.8 µM [inhibitor, partial curve]"
16,CCCCn1c(-c2csc3c2CCC(C)C3)n[nH]c1=S (configuration not stated),"inconclusive: 31.6 µM [inhibitor, partial curve]"
17,COc1ccc(NC(=O)C(C)n2nc(-c3ccc(C)c(C)c3)ccc2=O)cc1OC (configuration not stated),"inconclusive: 39.8 µM [inhibitor, single point]"
18,Cc1ccc(S(=O)(=O)/N=C2/C=C(C3C(=O)CC(C)(C)CC3=O)C(=O)c3ccccc32)cc1,active: 8.91 µM
19,CC1=NN(c2ccccc2)C(=O)/C1=C\N1CC(C)OC(C)C1 (configuration not stated),inactive
20,Cc1ccc(NC(=O)Cn2cc(S(=O)(=O)c3ccc(C)cc3)c(=O)c3cc4c(cc32)OCO4)cc1,inactive
21,Cc1ccc(CCC(=O)Nc2nccs2)o1,inactive
